Consider 23 molecules from the supplement of paper PMC8285479.

Each structure is given as a SMILES string. Structures can show the parent of a compound that is named as a salt. ± gives the standard deviation of the averaged measurements. The full ranking holds about 1,900 compounds; the median of “normalised cell viability (NPI; 0 = phenylarsine oxide control, 1 = DMSO control)” is about 1, and the lowest 2% start at about 0.039. Some of the results follow.

This test deals with NCI-H1944. Nature of the test: normalised cell viability (NPI; 0 = phenylarsine oxide control, 1 = DMSO control) (fraction of DMSO control); NCI-H1944 is a non-small cell lung cancer line; higher = more viable cells (less compound toxicity). The conditions noted are these: 6 days.
The mark [1] stands for this setting: glucocorticoid arm: hydrocortisone 2.75 uM co-treatment, compound 1 µM.
[2] abbreviates: glucocorticoid arm: hydrocortisone 2.75 uM co-treatment, compound 5 µM.
The mark [3] stands for this setting: glucocorticoid arm: hydrocortisone 2.75 uM pre-treated 2 days and continued, compound 1 µM.
[4] abbreviates: glucocorticoid arm: hydrocortisone 2.75 uM pre-treated 2 days and continued, compound 5 µM.
The mark [5] stands for this setting: glucocorticoid arm: vehicle, compound 1 µM.
Where [6] appears, read: glucocorticoid arm: vehicle, compound 5 µM.
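Note: CTB read-out in 384-well plates, mean of triplicate wells, normalised per plate against 1 µM phenylarsine oxide and 0.1% DMSO, compounds added 24 h after seeding.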

In the case of `N#CC(=C(/N)Sc1ccccc1N)/C(C#N)=C(\N)Sc1ccccc1N`, the normalised cell viability under setting [1] is 1.02 ± 0.011; the normalised cell viability under setting [2] was 1.08 ± 0.025; the normalised cell viability under setting [3] turned out to be 0.976 ± 0.016; the normalised cell viability under setting [4] amounted to 1.01 ± 0.027; the normalised cell viability under setting [5] stood at 1.023 ± 0.0058; the normalised cell viability under setting [6] is 1.02 ± 0.015.
Take `CC(C)(Oc1ccc(C2CC2(Cl)Cl)cc1)C(=O)O` (stereo not drawn) [Ciprofibrate]: the normalised cell viability under setting [1] came out at 0.9977 ± 0.0025; the normalised cell viability under setting [2] stood at 1.03 ± 0.011; the normalised cell viability under setting [3] is 1.001 ± 0.0082; the normalised cell viability under setting [4] stood at 1.03; the normalised cell viability under setting [5] worked out at 0.992 ± 0.0072; the normalised cell viability under setting [6] came out at 0.992 ± 0.011.
Regarding `c1ccc2c(-c3cnn4cc(-c5ccc(N6CCNCC6)cc5)cnc34)ccnc2c1`, the normalised cell viability is, setting by setting: under setting [1], 1.043 ± 0.0058; under setting [2], 0.832 ± 0.14; under setting [3], 1.04 ± 0.01; under setting [4], 1.09 ± 0.021; under setting [5], 1.01 ± 0.011; under setting [6], 0.0214 ± 0.0048.
For the molecule `CC(=O)NCCc1ccc(O)c(O)c1` [N-Acetyldopamine monohydrate], the normalised cell viability under setting [1] was found to be 0.999 ± 0.011; the normalised cell viability under setting [2] came out at 0.998 ± 0.011; the normalised cell viability under setting [3] was 0.988 ± 0.011; the normalised cell viability under setting [4] is 0.988 ± 0.017; the normalised cell viability under setting [5] turned out to be 0.984 ± 0.015; the normalised cell viability under setting [6] stood at 0.979 ± 0.0056.
Take `N[C@@H](Cc1ccc(F)cc1)C(=O)O` [p-Fluoro-L-phenylalanine]: the normalised cell viability reads like this: under setting [1], 1 ± 0.015; under setting [2], 1.01 ± 0.01; under setting [3], 1.006 ± 0.0075; under setting [4], 1.007 ± 0.0058; under setting [5], 1 ± 0.0092; under setting [6], 0.9973 ± 0.0046.
For `Nc1nccc2c1ncn2[C@@H]1O[C@H](CO)[C@@H](O)[C@H]1O` [3-deazaadenosine], the normalised cell viability came to 0.989 ± 0.0099 under setting [1]; 0.973 ± 0.025 under setting [2]; 0.996 ± 0.012 under setting [3]; 0.981 ± 0.011 under setting [4]; 0.9687 ± 0.0035 under setting [5]; 0.968 ± 0.0062 under setting [6].
With `CC[C@]1(O)C[C@@H]2CN(CCc3c([nH]c4ccccc34)[C@@](C(=O)OC)(c3cc4c(cc3OC)N(C)[C@H]3[C@@](O)(C(=O)OC)[C@H](OC(C)=O)[C@]5(CC)C=CCN6CC[C@]43[C@@H]65)C2)C1` [Vinblastine sulfate salt; Vinblastine sulfate], the normalised cell viability is, setting by setting: under setting [1], 0.354 ± 0.019; under setting [2], 1.023 ± 0.0058; under setting [3], 0.621 ± 0.029; under setting [4], 1.03 ± 0.027; under setting [5], 0.0439 ± 0.00099; under setting [6], 1.017 ± 0.0058.
In the case of `CC[C@]1(O)C[C@@H]2CN(CCc3c([nH]c4ccccc34)[C@@](C(=O)OC)(c3cc4c(cc3OC)N(C)[C@H]3[C@@](O)(C(=O)OC)[C@H](OC(C)=O)[C@]5(CC)C=CCN6CC[C@]43[C@@H]65)C2)C1` [Vinblastine sulfate salt], the normalised cell viability is, setting by setting: under setting [1], 0.361 ± 0.02; under setting [2], 0.337 ± 0.021; under setting [3], 0.795 ± 0.17; under setting [4], 0.94 ± 0.023; under setting [5], 0.0757 ± 0.0017; under setting [6], 0.0495 ± 0.005.
As to `Cn1cnc2c(NC3CCCC3)ncnc21` [N6-Cyclopentyl-9-methyladenine], the normalised cell viability runs as follows: under setting [1], 1.006 ± 0.0063; under setting [2], 1.03 ± 0.02; under setting [3], 1.023 ± 0.0058; under setting [4], 1.1 ± 0.081; under setting [5], 1.023 ± 0.0058; under setting [6], 0.902 ± 0.22.
As for `Cc1cc(CS(=O)(=O)c2ccccc2)cc(OCc2ccc(CN3CCC[C@@H]3CO)cc2)c1`, the normalised cell viability by setting is: under setting [1], 0.979 ± 0.014; under setting [2], 1.02 ± 0.012; under setting [3], 0.984 ± 0.019; under setting [4], 1.02 ± 0.024; under setting [5], 1.008 ± 0.0084; under setting [6], 1.01 ± 0.0063.
With `CCc1cc(/C(C)=N/OCc2ccc(C3CCCCC3)c(C(F)(F)F)c2)ccc1CN1CC(C(=O)O)C1` [BAF312 (Siponimod)], the normalised cell viability under setting [1] was 1.013 ± 0.0058; the normalised cell viability under setting [2] was 1.007 ± 0.0058; the normalised cell viability under setting [3] came to 1.02 ± 0.015; the normalised cell viability under setting [4] was 1.01 ± 0.013; the normalised cell viability under setting [5] worked out at 1.001 ± 0.0081; the normalised cell viability under setting [6] stood at 0.997 ± 0.012.
As for `Cc1cc(N2CCOCC2)cc2[nH]c(-c3c(NCC(O)c4cccc(Cl)c4)cc[nH]c3=O)nc12` (stereo not drawn), the normalised cell viability under setting [1] stood at 0.277 ± 0.0085; the normalised cell viability under setting [2] is 0.205 ± 0.011; the normalised cell viability under setting [3] amounted to 0.3733 ± 0.0021; the normalised cell viability under setting [4] worked out at 0.267 ± 0.0095; the normalised cell viability under setting [5] stood at 0.753 ± 0.051; the normalised cell viability under setting [6] is 0.263 ± 0.036.
Consider `Clc1ccccc1C(c1ccccc1)(c1ccccc1)n1ccnc1` [Clotrimazole], for which the normalised cell viability reads like this: under setting [1], 1 ± 0.027; under setting [2], 0.975 ± 0.015; under setting [3], 1.01 ± 0.012; under setting [4], 0.9775 ± 0.0064; under setting [5], 1.01; under setting [6], 1.017 ± 0.0058.
Turning to `CN1CCC[C@H]1c1cccnc1` [(-)-Nicotine hydrogen tartrate salt], the normalised cell viability reads like this: under setting [1], 1.007 ± 0.0058; under setting [2], 1 ± 0.02; under setting [3], 1 ± 0.01; under setting [4], 0.972 ± 0.038; under setting [5], 1.002 ± 0.0068; under setting [6], 1.01 ± 0.011.
For the molecule `CCCC(C(=O)OCCN(CC)CC)(c1ccccc1)c1ccccc1` [SKF-525A hydrochloride], the normalised cell viability under setting [1] worked out at 0.96 ± 0.012; the normalised cell viability under setting [2] was 0.826 ± 0.078; the normalised cell viability under setting [3] stood at 0.999 ± 0.011; the normalised cell viability under setting [4] worked out at 0.984 ± 0.031; the normalised cell viability under setting [5] was found to be 0.98 ± 0.004; the normalised cell viability under setting [6] amounted to 0.979 ± 0.02.
`CO[C@H]1C(=O)[C@]2(C)[C@@H](OC)C[C@H]3OC[C@@]3(OC(C)=O)[C@H]2[C@H](OC(=O)c2ccccc2)[C@]2(O)C[C@H](OC(=O)[C@H](O)[C@@H](NC(=O)OC(C)(C)C)c3ccccc3)C(C)=C1C2(C)C` [Cabazitaxel]: the normalised cell viability under setting [1] is 0.191 ± 0.012; the normalised cell viability under setting [2] amounted to 1.05 ± 0.021; the normalised cell viability under setting [3] was 0.468 ± 0.0065; the normalised cell viability under setting [4] came to 1.05 ± 0.015; the normalised cell viability under setting [5] is 0.0505 ± 0.01; the normalised cell viability under setting [6] came to 1.007 ± 0.0058.
As for `COc1cc(CC(=O)O)ccc1O` [4-Hydroxy-3-methoxyphenylacetic acid], the normalised cell viability worked out at 1.007 ± 0.0058 under setting [1]; 1.01 ± 0.014 under setting [2]; 1.01 ± 0.01 under setting [3]; 1.02 under setting [4]; 1.01 ± 0.01 under setting [5]; 1.01 under setting [6].
As for `CCN1/C(=C/C(C)=O)Sc2ccc(OC)cc21`, the normalised cell viability turned out to be 1.002 ± 0.0076 under setting [1]; 0.895 ± 0.016 under setting [2]; 1.013 ± 0.0058 under setting [3]; 0.994 ± 0.066 under setting [4]; 0.9943 ± 0.0025 under setting [5]; 0.997 ± 0.021 under setting [6].
`CN(C)C(=O)N=NC(=O)N(C)C` [N,N,N',N'-Tetramethylazodicarboxamide]: the normalised cell viability stood at 0.9907 ± 0.0011 under setting [1]; 0.9917 ± 0.0085 under setting [2]; 0.997 ± 0.0052 under setting [3]; 0.998 ± 0.024 under setting [4]; 0.99967 ± 0.00058 under setting [5]; 0.99933 ± 0.00058 under setting [6].
`C[C@H]1c2cccc(O)c2C(O)=C2C(=O)[C@]3(O)C(O)=C(C(N)=O)C(=O)[C@@H](N(C)C)[C@@H]3[C@@H](O)[C@@H]21` [Doxycycline HCl]: the normalised cell viability reads like this: under setting [1], 0.994 ± 0.007; under setting [2], 0.986 ± 0.026; under setting [3], 0.9957 ± 0.0031; under setting [4], 0.99 ± 0.006; under setting [5], 0.9947 ± 0.0025; under setting [6], 1 ± 0.015.
In the case of `C=CCc1ccccc1OCC(O)CNC(C)C` (stereo not drawn) [Alprenolol hydrochloride], the normalised cell viability turned out to be 0.987 ± 0.023 under setting [1]; 1.01 ± 0.026 under setting [2]; 1 ± 0.018 under setting [3]; 1.015 ± 0.0071 under setting [4]; 1 ± 0.013 under setting [5]; 1.003 ± 0.0061 under setting [6].
As to `CC(=O)OC(C)C[N+](C)(C)C` (stereo not drawn) [Acetyl-beta-methylcholine chloride], the normalised cell viability is, setting by setting: under setting [1], 0.9817 ± 0.0061; under setting [2], 0.981 ± 0.01; under setting [3], 0.9823 ± 0.0059; under setting [4], 0.978 ± 0.029; under setting [5], 0.97 ± 0.014; under setting [6], 0.97 ± 0.005.
On to `CCCCC[C@H](CC(=O)NO)C(=O)N[C@H](C(=O)N1CCC[C@H]1CO)C(C)C` [Actinonin], for which the normalised cell viability by setting is: under setting [1], 0.989 ± 0.0095; under setting [2], 0.995 ± 0.014; under setting [3], 0.993 ± 0.016; under setting [4], 0.993 ± 0.0099; under setting [5], 0.989 ± 0.005; under setting [6], 0.98 ± 0.0098.
